# Laboratory results from PubChem BioAssay (Tox21).
# Where “and” joins values, the source holds several entries; their conditions need not be identical. Equal values may be shown once. Inconclusive means that the source gave no clear call. Such entries were picked first, then a sample of the others. Where the call is inconclusive, the potency comes from a doubtful curve fit. Calls of active or inactive are those of the source. Unless noted, the call rests on the fitted dose curve; in most records, active means well fitted curve in the direction sought with a large enough effect in the repeat runs; inconclusive means weak or mixed curves; inactive means no such curve, though single readings can be large; an effect the other way counts as inactive or inconclusive.
# What was measured:
# [1] = molecular target: Progesterone receptor (Homo sapiens) (UniProt P06401); assay: qHTS assay to identify small molecule antagonists of the progesterone receptor (PR) signaling pathway (AID 1346795; active means well fitted inhibition curve with a large enough effect in the signal ratio in the repeat runs, not every such curve was filed as active; inconclusive means weak or mixed curves; the % refers to the signal ratio; on activity change, negative = inhibition: on the % scale 0 is the no-effect control and ±100 the full control effect); conditions: PR-UAS-bla HEK293T, beta-lactamase FRET ratio, 16 h; activity change, negative = inhibition: at 92.4 µM (top of the series) unless noted
# Outline: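 After 6 hr plating at 37C in 2% stripped-serum medium, PR-UAS-bla HEK293T cells got compounds, then 1 nM R5020. Sixteen hours later, LiveBLAzer substrate was applied for 2 hr at room temperature and fluorescence was recorded.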
# [2] = qHTS assay to identify small molecule antagonists of the progesterone receptor (PR) signaling pathway - cell viability counter screen (AID 1346798); conditions: PR-UAS-bla HEK293T viability, CellTiter-Glo luminescence, 16 h; series mostly up to 92.4 µM; further: nearly all actives have a fitted effect of over 50% in size
# Outline: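 Viability was determined by ATP-based luminescence (CellTiter-Glo) in PR-UAS-bla HEK293T cells cultured in 2% charcoal-stripped serum and incubated 16 hr with compounds under R5020 stimulation.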
# [3] = qHTS assay to identify small molecule agonists of the progesterone receptor (PR) signaling pathway - cell viability counter screen (AID 1346799; calls by dose curve; further: nearly all actives have a fitted effect of over 45% in size; on activity change, negative = cytotoxicity: on the % scale 0 is the no-effect control and ±100 the full control effect); conditions: PR-UAS-bla HEK293T viability, CellTiter-Glo luminescence, 16 h; series mostly up to 92.4 µM
# Outline: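 Viability was scored by ATP luminescence (CellTiter-Glo, 30 min, room temperature) in the same wells used for the reporter readout, after 16 hr compound exposure of PR-UAS-bla HEK293T cells.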
# [4] = qHTS assay to identify small molecule agonists of the TGF-beta/Smad signaling pathway - cell viability counter screen (AID 1346829); conditions: SBE-bla HEK293T viability, CellTiter-Glo luminescence, 5 h; series mostly up to 76.8 µM; further: nearly all actives have a fitted effect of over 45% in size; on activity change, negative = cytotoxicity: top concentration of the series differs between compounds; on the % scale 0 is the no-effect control and ±100 the full control effect
# Outline: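 CellTiter-Glo luminescence readout; SBE-bla HEK 293T cells, overnight plating, compound 5 hr at 37 C/5% CO2, then bla substrate 2 hr RT, then CellTiter-Glo 30 min RT.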
# [5] = qHTS assay to identify small molecule agonists of the TGF-beta/Smad signaling pathway (AID 1346859; active means well fitted activation curve with a large enough effect in the signal ratio in the repeat runs, not every such curve was filed as active; inconclusive means weak or mixed curves; the % refers to the signal ratio; on activation: on the % scale 0 is the no-effect control and ±100 the full control effect); conditions: SBE-bla HEK293T, TGF-beta/Smad beta-lactamase reporter, 5 h; activation: at 76.8 µM (top of the series) unless noted
# Outline: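 Dual-wavelength fluorescence (460/530 nm emission) quantified beta-lactamase expression under the Smad binding element in HEK 293T cells following 5 hr compound treatment at 37 C.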
# [6] = qHTS assay to identify small molecule antagonists of the TGF-beta/Smad signaling pathway - cell viability counter screen (AID 1346824); conditions: SBE-bla HEK293T viability, CellTiter-Glo luminescence; series mostly up to 76.8 µM; further: nearly all actives have a fitted effect of over 50% in size
# Outline: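 SBE-bla HEK 293T cells were plated overnight at 37 C, then given compounds in DMSO plus TGF-beta1 (added as 0.25 ng/mL solution) for 5 hr. After the bla read, CellTiter-Glo was added to the same wells and luminescence read after 30 min at room temperature.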
# [7] = molecular target: Thyrotropin-releasing hormone receptor (Homo sapiens) (UniProt P34981); assay: qHTS assay to identify small molecule antagonists of the thyrotropin-releasing hormone receptor (TRHR) signaling pathway (AID 1346877; active means well fitted inhibition curve with a large enough effect in the repeat runs, not every such curve was filed as active; inconclusive means weak or mixed curves); conditions: TRHR-HEK293, TRH-induced calcium fluorescence, antagonist mode; series mostly up to 51.3 µM
# Outline: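 Overnight-plated (18 h, 37 °C) HEK293 cells expressing TRHR were dye-loaded 2 h, treated with compound, then stimulated with TRH at 1 nM final. Fluorescence intensity was captured every second for 3 min.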
# Potency means the concentration at half of the fitted maximal effect; tags describe the fitted curve by direction and shape or compound fluorescence and quenching.
# UniProt P06401, sequence (P06401 whole entry, looked up): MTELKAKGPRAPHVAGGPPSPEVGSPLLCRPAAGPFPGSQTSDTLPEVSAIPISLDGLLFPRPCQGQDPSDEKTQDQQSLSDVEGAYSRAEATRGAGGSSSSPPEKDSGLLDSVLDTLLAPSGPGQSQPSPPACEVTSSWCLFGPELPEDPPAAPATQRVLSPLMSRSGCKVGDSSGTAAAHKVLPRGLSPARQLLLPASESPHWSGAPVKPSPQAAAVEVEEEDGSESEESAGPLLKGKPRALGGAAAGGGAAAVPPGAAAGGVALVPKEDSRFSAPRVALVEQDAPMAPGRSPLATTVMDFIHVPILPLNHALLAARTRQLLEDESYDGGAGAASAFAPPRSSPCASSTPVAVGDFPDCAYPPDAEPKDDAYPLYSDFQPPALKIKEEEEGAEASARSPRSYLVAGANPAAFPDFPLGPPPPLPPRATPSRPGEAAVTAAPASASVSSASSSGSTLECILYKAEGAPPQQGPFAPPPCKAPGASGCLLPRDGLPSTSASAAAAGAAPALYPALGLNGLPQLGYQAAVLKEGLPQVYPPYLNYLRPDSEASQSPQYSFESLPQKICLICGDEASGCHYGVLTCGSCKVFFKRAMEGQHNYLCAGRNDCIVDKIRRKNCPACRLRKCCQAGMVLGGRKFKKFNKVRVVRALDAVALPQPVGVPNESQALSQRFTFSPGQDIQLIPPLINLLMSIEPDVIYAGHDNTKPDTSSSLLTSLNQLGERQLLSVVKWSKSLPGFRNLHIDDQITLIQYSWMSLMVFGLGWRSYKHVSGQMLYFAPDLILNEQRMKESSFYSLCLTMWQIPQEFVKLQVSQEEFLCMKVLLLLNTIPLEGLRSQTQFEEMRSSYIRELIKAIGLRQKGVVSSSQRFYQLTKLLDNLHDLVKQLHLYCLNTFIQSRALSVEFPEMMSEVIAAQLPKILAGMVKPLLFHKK
# UniProt P34981, sequence (P34981 whole entry, looked up): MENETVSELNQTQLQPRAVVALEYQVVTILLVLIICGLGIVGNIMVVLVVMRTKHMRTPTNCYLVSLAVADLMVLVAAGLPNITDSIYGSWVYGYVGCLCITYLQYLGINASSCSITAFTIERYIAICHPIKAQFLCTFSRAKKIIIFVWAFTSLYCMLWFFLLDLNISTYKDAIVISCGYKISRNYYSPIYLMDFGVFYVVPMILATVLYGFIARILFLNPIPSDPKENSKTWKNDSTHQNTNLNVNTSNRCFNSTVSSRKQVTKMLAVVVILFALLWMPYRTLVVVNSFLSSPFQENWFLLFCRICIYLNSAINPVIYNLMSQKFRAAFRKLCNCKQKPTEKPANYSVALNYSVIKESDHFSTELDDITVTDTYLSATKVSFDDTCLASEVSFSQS
compound,measurement,setting,value
N[C@@H](CSSC[C@H](N)C(=O)O)C(=O)O,Potency,[1],"inconclusive: 0.335 µM [falling, single point]"
same,Potency,[2],"inconclusive: 0.335 µM [cytotoxic, single point]"
same,Potency,[3],"inconclusive: 0.0335 µM [rising, single point]"
C[C@](N)(Cc1ccc(O)cc1)C(=O)O,"activity change, negative = inhibition",[1],inactive: 12.2% [at 8.39 µM]
same,"activity change, negative = cytotoxicity",[3],inactive: 2.57% [at 8.39 µM]
O=C(OCCCCCCOC(=O)c1ccccc1)c1ccccc1,Potency,[1],inconclusive: 68.6 µM [single point]
same,Potency,[2],"inconclusive: 68.6 µM [cytotoxic, single point]"
same,Potency,[3],"inconclusive: 68.6 µM [cytotoxic, partial curve, poor fit]"
CC(N)CCCC(C)(C)O (stereo not given),Potency,[1],inactive
same,Potency,[2],"inconclusive: 2.98 µM [cytotoxic, single point]"
same,Potency,[4],"inconclusive: 5.35 µM [cytotoxic, single point]"
same,Potency,[5],inactive
C/C(=C\C(C)CC(C)CC(C)C)C1CC(=O)OC1=O (stereo not given),"activity change, negative = inhibition",[1],inconclusive: -0.389%
same,Potency,[2],"inconclusive: 68.6 µM [rising, partial curve, poor fit]"
same,Potency,[3],"inconclusive: 54.5 µM [cytotoxic, partial curve, poor fit]"
same,Potency,[6],inactive
O=S(c1cc(Cl)cc(Cl)c1O)c1cc(Cl)cc(Cl)c1O,Potency,[1],"inconclusive: 33.5 µM [falling, single point]"
same,Potency,[2],"inconclusive: 29.8 µM [cytotoxic, single point]"
same,Potency,[3],inactive
CCOC(=O)COc1ccc(C)cc1,Potency,[1],inactive
same,Potency,[3],inactive
C[C@@H](CN(C)C)CN1c2ccccc2Sc2ccccc21,Potency,[1],active: 26.6 µM
same,Potency,[2],active: 18.8 µM
same,Potency,[3],active: 10.6 µM
CCn1c2ccccc2c2cc([N+](=O)[O-])ccc21,Potency,[1],"inconclusive: 9.69 µM [rising, full curve]"
same,Potency,[2],"inconclusive: 54.5 µM [cytotoxic, partial curve, poor fit]"
same,activation,[5],inconclusive: 17%
COC(=O)CC(=O)C(C)(C)C,Potency,[1],"inconclusive: 19.3 µM [rising, full curve]"
same,Potency,[2],"inconclusive: 17.2 µM [cytotoxic, full curve]"
same,Potency,[3],"inconclusive: 12.2 µM [cytotoxic, full curve]"
same,Potency,[4],inactive
O=C(O)C(c1ccc(Cl)cc1)c1ccc(Cl)cc1,Potency,[1],inactive
same,Potency,[2],"inconclusive: 43.3 µM [cytotoxic, partial curve]"
same,Potency,[3],"inconclusive: 24.3 µM [cytotoxic, partial curve]"
O=C(c1ccccc1)c1cc(Cl)ccc1O,"activity change, negative = inhibition",[1],inconclusive: -32%
same,Potency,[2],"inconclusive: 65.1 µM [cytotoxic, single point]"
same,Potency,[3],"inconclusive: 65.1 µM [cytotoxic, partial curve, poor fit]"
COC(=O)C1=C(C)NC(COC(N)=O)=C(C(=O)OC(C)C)C1c1cccc(Cl)c1Cl (stereo not given),Potency,[1],"inconclusive: 3.35 µM [falling, full curve]"
same,Potency,[2],"inconclusive: 7.5 µM [rising, full curve]"
same,Potency,[3],"inconclusive: 11.9 µM [rising, partial curve]"
same,Potency,[6],inactive
same,Potency,[5],"inconclusive: 19 µM [activator, partial curve]"
CC(=O)c1c(C)c([N+](=O)[O-])c(C(C)(C)C)c([N+](=O)[O-])c1C,"activity change, negative = inhibition",[1],inconclusive: -39.9%
same,Potency,[3],"inconclusive: 24.3 µM [rising, partial curve]"
COc1cc(CNC(=O)CCCC/C=C/C(C)C)ccc1O,Potency,[1],active: 53 µM
same,Potency,[2],"inconclusive: 47.3 µM [rising, partial curve, poor fit]"
same,Potency,[3],"inconclusive: 42.1 µM [rising, partial curve, poor fit]"
Nc1cc(C(F)(F)F)ccc1S,Potency,[1],"inconclusive: 11.9 µM [rising, partial curve, poor fit]"
same,Potency,[2],active: 13.3 µM
same,Potency,[3],"inconclusive: 13.3 µM [cytotoxic, full curve]"
O=C(O)c1cc(N=Nc2ccc([N+](=O)[O-])cc2)ccc1O,"activity change, negative = inhibition",[1],inconclusive: -26.5%
same,Potency,[2],"inconclusive: 2.68 µM [cytotoxic, partial curve, poor fit]"
same,Potency,[3],"inconclusive: 13.4 µM [cytotoxic, full curve]"
same,Potency,[5],"inconclusive: 21.5 µM [rising, partial curve]"
Cc1ccc2oc(CN(Cc3ccccc3)C(=O)Nc3c(F)cc(F)cc3F)c(-c3ccc(Cl)cc3)c2c1,Potency,[1],"inconclusive: 1.49 µM [rising, partial curve]"
same,Potency,[2],inconclusive: 11.8 µM
same,Potency,[3],"inconclusive: 8.36 µM [rising, full curve]"
Oc1ccc(Oc2ccccc2)cc1,Potency,[1],active: 20.6 µM
same,Potency,[3],"inconclusive: 1.83 µM [rising, single point]"
Nc1nnc(-c2ccc([N+](=O)[O-])o2)o1,Potency,[1],"inconclusive: 68.6 µM [falling, single point]"
same,Potency,[2],"inconclusive: 68.6 µM [cytotoxic, single point]"
same,Potency,[3],"inconclusive: 48.6 µM [rising, partial curve]"
CN(C)CCOC(c1ccccc1)c1ccc(Br)cc1 (stereo not given),"activity change, negative = inhibition",[1],inconclusive: -34.4% [at 42.5 µM]
same,Potency,[2],active: 13.3 µM
same,Potency,[3],active: 16.8 µM
CCOc1ccc(Cc2nccc3cc(OCC)c(OCC)cc23)cc1OCC,Potency,[1],active: 16.8 µM
same,Potency,[2],active: 18.8 µM
same,Potency,[3],"inconclusive: 2.37 µM [rising, full curve]"
CN(C)[C@@H](CCOc1cccc2ccccc12)c1ccccc1,Potency,[1],"inconclusive: 10.6 µM [rising, partial curve]"
same,Potency,[2],"inconclusive: 16.8 µM [cytotoxic, partial curve]"
same,Potency,[3],"inconclusive: 0.0106 µM [rising, full curve, poor fit]"
same,Potency,[6],"inconclusive: 26.8 µM [cytotoxic, partial curve, poor fit]"
CCCCCCCCCOC(=O)c1ccccc1C(=O)OCCCCCCCCC,Potency,[1],inactive
same,Potency,[3],"inconclusive: 15.3 µM [cytotoxic, full curve]"
CC(C)CCCCCOC(=O)CCS,Potency,[1],inactive
same,Potency,[6],inactive
O=C1OC2(c3ccccc31)c1cc(I)c(O)c(I)c1Oc1c2cc(I)c(O)c1I,"activity change, negative = inhibition",[1],inconclusive: -30% [at 42.5 µM] and inconclusive: -18.4% [at 42.5 µM]
same,Potency,[3],"inconclusive: 33.1 µM [cytotoxic, single point]"
same,Potency,[4],"inconclusive: 10.6 µM [rising, partial curve, poor fit]"
C[C@@H]1CCN(C(=O)[C@H](CCCN=C(N)N)NS(=O)(=O)c2cccc3c2NC[C@H](C)C3)[C@@H](C(=O)O)C1,Potency,[1],inactive
same,Potency,[3],"inconclusive: 3.35 µM [cytotoxic, single point]"
Cc1oc(C)c(C(=O)Nc2ccccc2)c1C,Potency,[1],"inconclusive: 19.3 µM [rising, full curve]"
same,Potency,[6],"inconclusive: 0.347 µM [cytotoxic, full curve, poor fit]"
same,Potency,[4],"inconclusive: 21.9 µM [cytotoxic, full curve, poor fit]"
O=c1oc2cc(O)ccc2c2oc3cc(O)ccc3c12,"activity change, negative = inhibition",[1],inconclusive: -27.3%
same,Potency,[3],inactive
same,Potency,[5],"inconclusive: 26.4 µM [fluorescent, partial curve]"
CCCCN1C(=O)[C@@H]([C@H](O)C2CCCCC2)NC(=O)C12CCN(Cc1ccc(Oc3ccc(C(=O)O)cc3)cc1)CC2,Potency,[1],"inconclusive: 4.86 µM [rising, full curve]"
same,Potency,[3],"inconclusive: 13.7 µM [rising, full curve]"
same,Potency,[5],"inconclusive: 4.9 µM [rising, full curve]"
O=C(O)CCCCCCCCCCC(=O)O,Potency,[1],inactive
same,Potency,[4],"inconclusive: 0.0436 µM [cytotoxic, full curve]"
same,Potency,[5],"inconclusive: 0.155 µM [rising, full curve]"
CC(C)(C)N(CCO)CCO,Potency,[1],inactive
same,Potency,[6],inactive
CCCCC/C(=C\c1ccccc1)CO,Potency,[1],"inconclusive: 19.1 µM [falling, full curve]"
same,Potency,[3],inactive
CC(C)CC(C)(C)C,Potency,[1],"inconclusive: 56.5 µM [rising, single point]"
same,Potency,[3],active: 31.8 µM
CC(=O)C(C)O (stereo not given),"activity change, negative = inhibition",[1],inconclusive: 3.33%
same,Potency,[4],inactive
CCOC(=O)C1=C[C@]2(CC)CCCN3CCc4c(n1c1ccccc41)[C@@H]32,Potency,[1],active: 23.7 µM
same,Potency,[4],"inconclusive: 26.8 µM [cytotoxic, single point]"
COc1ccc(COC=O)cc1,Potency,[1],inactive
same,Potency,[4],inactive
Cc1[nH]cnc1-c1ccc(Cl)cc1,"activity change, negative = inhibition",[1],inconclusive: -33.2% [at 42.5 µM]
same,Potency,[3],"inconclusive: 3.35 µM [cytotoxic, single point]"
Clc1nc(Cl)c(Cl)c(Cl)c1Cl,Potency,[1],inactive
same,Potency,[3],"inconclusive: 27.3 µM [rising, full curve]"
CCCCC,Potency,[1],inactive
same,Potency,[3],inactive
same,Potency,[7],"inconclusive: 29.7 µM [inhibitor, partial curve]"
Nc1ccccc1S(=O)(=O)c1ccccc1,Potency,[1],"inconclusive: 21.7 µM [rising, full curve, poor fit]"
same,Potency,[3],"inconclusive: 48.6 µM [rising, partial curve]"
COc1c(C)c2c(c(O)c1C/C=C(\C)CCC(=O)O)C(=O)OC2,Potency,[1],"inconclusive: 0.133 µM [rising, full curve]"
same,Potency,[3],"inconclusive: 0.015 µM [cytotoxic, full curve, poor fit]"
same,Potency,[5],"inconclusive: 6.74 µM [rising, full curve]"
CCCCCCCCCCC[C@@H](C[C@@H]1OC(=O)[C@H]1CCCCCC)OC(=O)[C@H](CC(C)C)NC=O,Potency,[1],"inconclusive: 1.88 µM [falling, full curve]"
same,Potency,[3],"inconclusive: 8.41 µM [cytotoxic, full curve, poor fit]"
same,Potency,[6],inactive
